Measured values reported in the supplement of paper PMC4604168 (melanoma cell lines).
The list shows a part of the results. Single values are uncertain, as repeats are few or missing.

tested on: WM3619; assay: cell count relative to DMSO control; melanoma cells; higher = more viable cells; conditions: library dose: standard library concentration; 72 h
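Note: cells treated in 1,536-well plates, then fixed and DAPI-stained, with nuclei counted from automated high-throughput microscope images.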

| Structure (SMILES) | cell count [%] |
| --- | --- |
| CC1(C)NC(=O)N(c2ccc([N+](=O)[O-])c(C(F)(F)F)c2)C1=O [nilutamide] + CCc1ccc(CCOc2ccc(CC3SC(=O)NC3=O)cc2)nc1 [pioglitazone] (first compound 5 µM, partner dose 10 µM) | 103 |
| O=C(Nc1cccc(Cl)c1)Nc1ncc(CCNc2ncnc3ccsc23)s1 + CC(C)CCN1c2nc(Nc3cc(F)c(O)c(F)c3)ncc2N(C)C(=O)C1C [BID1870] (first compound 0.004 µM, partner dose 1 µM) | 76.8 |
| COc1cc(Nc2ncc(F)c(Nc3ccc4c(n3)NC(=O)C(C)(C)O4)n2)cc(OC)c1OC [Tamatinib] + N#Cc1c(O)c2c(-c3ccc(-c4ccccc4O)cc3)csc2[nH]c1=O [A769662] (first compound 2 µM, partner dose 10 µM) | 72.6 |
| O=C(Nc1cccc(Cl)c1)Nc1ncc(CCNc2ncnc3ccsc23)s1 + COC(=O)c1sccc1S(=O)(=O)Nc1ccc(Nc2ccccc2)cc1OC [GSK0660] (first compound 0.004 µM, partner dose 5 µM) | 54.3 |
| O=C(Nc1cccc(Cl)c1)Nc1ncc(CCNc2ncnc3ccsc23)s1 + c1cc(-c2cnn3cc(-c4ccc(OCCN5CCCCC5)cc4)cnc23)ccn1 [Dorsomorphin] (first compound 0.004 µM, partner dose 2 µM) | 79.5 |
| CC1(C)NC(=O)N(c2ccc([N+](=O)[O-])c(C(F)(F)F)c2)C1=O [nilutamide] + COc1ccc2c(c1)CCC1C2CCC2(C)C(NCCCCCCN3C(=O)C=CC3=O)CCC12 [U73122] (first compound 5 µM, partner dose 2 µM) | 99.9 |
| O=C(Nc1cccc(Cl)c1)Nc1ncc(CCNc2ncnc3ccsc23)s1 + Oc1cc(-c2nc(-c3ccccc3)[nH]c2-c2ccncc2)ccc1Cl [L779450] (first compound 0.004 µM, partner dose 1 µM) | 67.2 |
| CC1(C)NC(=O)N(c2ccc([N+](=O)[O-])c(C(F)(F)F)c2)C1=O [nilutamide] + Cc1cc([N+](=O)[O-])ccc1NS(=O)(=O)c1cc(Cl)ccc1Cl [FH535] (first compound 5 µM, partner dose 5 µM) | 68.8 |
| O=C(O)c1ccc(-c2c[nH]c3ncc(-c4ccccc4)cc23)cc1C1CCCC1 + CC(C)CCN1c2nc(Nc3cc(F)c(O)c(F)c3)ncc2N(C)C(=O)C1C [BID1870] (first compound 0.8 µM, partner dose 1 µM) | 65 |
| Cn1cncc1[C@@](N)(c1ccc(Cl)cc1)c1ccc2c(c1)c(-c1cccc(Cl)c1)cc(=O)n2C [tipifarnib] + COc1cc(N2CCC(N3CCN(C)CC3)CC2)ccc1Nc1ncc(Cl)c(Nc2ccccc2S(=O)(=O)C(C)C)n1 [NVP-TAE684] (first compound 0.05 µM, partner dose 0.4 µM) | 70.1 |
| O=C(O)c1ccc(-c2c[nH]c3ncc(-c4ccccc4)cc23)cc1C1CCCC1 + COc1ccc2c(c1)CCC1C2CCC2(C)C(NCCCCCCN3C(=O)C=CC3=O)CCC12 [U73122] (first compound 0.8 µM, partner dose 2 µM) | 66.3 |
| C[C@@H]1CCN(C(=O)CC#N)C[C@@H]1N(C)c1ncnc2[nH]ccc12 + O=C(O)C(=O)Nc1sc2c(c1C(=O)O)CCNC2 [TCS401] (first compound 5 µM, partner dose 8.33333 µM) | 86.5 |
| C[C@@H]1CCN(C(=O)CC#N)C[C@@H]1N(C)c1ncnc2[nH]ccc12 + CCCCCCCCCCCC1=C(O)C(=O)C=C(O)C1=O [Embelin] (first compound 5 µM, partner dose 6 µM) | 76.8 |
| O=C(Nc1cccc(Cl)c1)Nc1ncc(CCNc2ncnc3ccsc23)s1 + COc1ccc(COc2ccc(Cc3cnc(N)nc3N)cc2OC)cc1 [GW2580] (first compound 0.004 µM, partner dose 5 µM) | 65.1 |
| COc1cc(Nc2ncc(F)c(Nc3ccc4c(n3)NC(=O)C(C)(C)O4)n2)cc(OC)c1OC [Tamatinib] + COc1ccc2c(c1)CCC1C2CCC2(C)C(NCCCCCCN3C(=O)C=CC3=O)CCC12 [U73122] (first compound 2 µM, partner dose 2 µM) | 49.1 |
| C[C@@H]1CCN(C(=O)CC#N)C[C@@H]1N(C)c1ncnc2[nH]ccc12 + O=C(Nc1ccccc1)c1cc([N+](=O)[O-])ccc1Cl [GW9662] (first compound 5 µM, partner dose 10 µM) | 66.2 |

| Structure (SMILES) | cell count [%] |
| --- | --- |
| C[C@@H]1CCN(C(=O)CC#N)C[C@@H]1N(C)c1ncnc2[nH]ccc12 + CC(C)CCN1c2nc(Nc3cc(F)c(O)c(F)c3)ncc2N(C)C(=O)C1C [BID1870] (first compound 5 µM, partner dose 1 µM) | 79.6 |
| O=C(O)c1ccc(-c2c[nH]c3ncc(-c4ccccc4)cc23)cc1C1CCCC1 + Oc1cc(-c2nc(-c3ccccc3)[nH]c2-c2ccncc2)ccc1Cl [L779450] (first compound 0.8 µM, partner dose 1 µM) | 61.6 |
| Cn1cncc1[C@@](N)(c1ccc(Cl)cc1)c1ccc2c(c1)c(-c1cccc(Cl)c1)cc(=O)n2C [tipifarnib] + O=S(=O)(c1ccccc1)N(CC(F)(F)F)c1ccc(C(O)(C(F)(F)F)C(F)(F)F)cc1 [T0901317] (first compound 0.05 µM, partner dose 7 µM) | 64.7 |
| CC1(C)NC(=O)N(c2ccc([N+](=O)[O-])c(C(F)(F)F)c2)C1=O [nilutamide] + O=S(=O)(c1ccccc1)N(CC(F)(F)F)c1ccc(C(O)(C(F)(F)F)C(F)(F)F)cc1 [T0901317] (first compound 5 µM, partner dose 7 µM) | 85.9 |
| O=C(Nc1cccc(Cl)c1)Nc1ncc(CCNc2ncnc3ccsc23)s1 + COc1ccc(-c2ccc3c(N4CCOCC4)nc(N4C[C@@H](C)O[C@@H](C)C4)nc3n2)cc1CO [KU0063794] (first compound 0.004 µM, partner dose 0.1 µM) | 50.7 |
| CC1(C)NC(=O)N(c2ccc([N+](=O)[O-])c(C(F)(F)F)c2)C1=O [nilutamide] + CCCCCCCCCCCC1=C(O)C(=O)C=C(O)C1=O [Embelin] (first compound 5 µM, partner dose 6 µM) | 86.4 |
| COc1cc(Nc2ncc(F)c(Nc3ccc4c(n3)NC(=O)C(C)(C)O4)n2)cc(OC)c1OC [Tamatinib] + COc1cc(N2CCC(N3CCN(C)CC3)CC2)ccc1Nc1ncc(Cl)c(Nc2ccccc2S(=O)(=O)C(C)C)n1 [NVP-TAE684] (first compound 2 µM, partner dose 0.4 µM) | 51.4 |
| COc1cc(Nc2ncc(F)c(Nc3ccc4c(n3)NC(=O)C(C)(C)O4)n2)cc(OC)c1OC [Tamatinib] + Cc1cc([N+](=O)[O-])ccc1NS(=O)(=O)c1cc(Cl)ccc1Cl [FH535] (first compound 2 µM, partner dose 5 µM) | 36.4 |
| CC1(C)NC(=O)N(c2ccc([N+](=O)[O-])c(C(F)(F)F)c2)C1=O [nilutamide] + COc1ccc(-c2ccc3c(N4CCOCC4)nc(N4C[C@@H](C)O[C@@H](C)C4)nc3n2)cc1CO [KU0063794] (first compound 5 µM, partner dose 0.1 µM) | 53.7 |
| O=C(O)c1ccc(-c2c[nH]c3ncc(-c4ccccc4)cc23)cc1C1CCCC1 + COc1cc(N2CCC(N3CCN(C)CC3)CC2)ccc1Nc1ncc(Cl)c(Nc2ccccc2S(=O)(=O)C(C)C)n1 [NVP-TAE684] (first compound 0.8 µM, partner dose 0.4 µM) | 78 |
| Cn1cncc1[C@@](N)(c1ccc(Cl)cc1)c1ccc2c(c1)c(-c1cccc(Cl)c1)cc(=O)n2C [tipifarnib] + CCCCCCCCCCCC1=C(O)C(=O)C=C(O)C1=O [Embelin] (first compound 0.05 µM, partner dose 6 µM) | 65.1 |
| CC1(C)NC(=O)N(c2ccc([N+](=O)[O-])c(C(F)(F)F)c2)C1=O [nilutamide] + CCN(CC)CCCCNc1ncc2cc(-c3cc(OC)cc(OC)c3)c(NC(=O)NC(C)(C)C)nc2n1 [PD173074] (first compound 5 µM, partner dose 0.5 µM) | 106 |
| C[C@@H]1CCN(C(=O)CC#N)C[C@@H]1N(C)c1ncnc2[nH]ccc12 + CCc1ccc(CCOc2ccc(CC3SC(=O)NC3=O)cc2)nc1 [pioglitazone] (first compound 5 µM, partner dose 10 µM) | 115 |
| Cn1cncc1[C@@](N)(c1ccc(Cl)cc1)c1ccc2c(c1)c(-c1cccc(Cl)c1)cc(=O)n2C [tipifarnib] + Oc1cc(-c2nc(-c3ccccc3)[nH]c2-c2ccncc2)ccc1Cl [L779450] (first compound 0.05 µM, partner dose 1 µM) | 69 |
| Cn1cncc1[C@@](N)(c1ccc(Cl)cc1)c1ccc2c(c1)c(-c1cccc(Cl)c1)cc(=O)n2C [tipifarnib] + COc1ccc(-c2ccc3c(N4CCOCC4)nc(N4C[C@@H](C)O[C@@H](C)C4)nc3n2)cc1CO [KU0063794] (first compound 0.05 µM, partner dose 0.1 µM) | 70.3 |
| Cn1cncc1[C@@](N)(c1ccc(Cl)cc1)c1ccc2c(c1)c(-c1cccc(Cl)c1)cc(=O)n2C [tipifarnib] + CCN(CC)CCCCNc1ncc2cc(-c3cc(OC)cc(OC)c3)c(NC(=O)NC(C)(C)C)nc2n1 [PD173074] (first compound 0.05 µM, partner dose 0.5 µM) | 96.2 |
